From PubChem BioAssay AID1963576 (National Center for Advancing Translational Sciences (NCATS), 2024)
Among all 46,000 compounds or so, about 60 (0.1%) were called active. Not shown: some 3% with an inconclusive outcome. The call rests on the fitted dose curve; in most records, active means well fitted inhibition curve with a large enough effect; inconclusive means small, poorly fitted or top-dose-only effect; inactive means no such curve, though single readings can be large or run the other way. This is one part of the list.

experiment: Primary qHTS assay for Inhibitors of ovarian cancer metastasis using an organotypic tumor microenvironment (TME) model.; further: nearly all actives have a fitted effect of over 65% in size;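 on activity change, negative = inhibition: plate controls were DMSO wells for no effect and tomatine positive control wells for full effect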; settings: SKOV3ip1-GFP adhesion/invasion on 3D omental model, fluorescence; series mostly up to 45.8 µM; activity change, negative = inhibition: at the top concentration
How it was run: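 Adhesion/invasion was scored as fixed GFP-labeled SKOV3ip1 cell counts (488/509 nm), normalized to DMSO and tomatine controls. Cancer cells in serum-free medium, with four compound doses (0.36-46 umol/L), sat 2 hr at RT then 16 hr at 37 C on a 48 hr fibroblast/mesothelial/ECM culture.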

Activity change, negative = inhibition, inactive:
Cc1ccc(C(=O)COC(=O)CCC(=O)Nc2ccc(Oc3ccccc3)cc2)cc1C 1.1%
C=CC1=C(C(=O)O)N2C(=O)[C@@H](NC(=O)C(=NO)c3csc(N)n3)[C@H]2SC1 13.7%
O=C(CSc1nc(=O)[nH]c2c1CCC2)NCc1ccccc1 3.36%
Cn1c(CCNC(=O)c2ccco2)nc2cc(NC(=O)COc3ccc(Cl)cc3)ccc21 -2%
CCOc1ccccc1NS(=O)(=O)c1cnc(N)nc1 -0.518%
Cc1ccccc1N1CCN(S(=O)(=O)c2nnc(NC(=O)c3ccc(Cl)cc3)s2)CC1 1.38%
O=C(Cn1c(=O)nc(-c2ccccc2)c2ccccc21)NCCCc1ccccc1 2.83%
COc1ccc(CCNC(=O)CS(=O)Cc2nc(-c3ccc(C)cc3)oc2C)c(OC)c1 (stereo not given) -6.61%
CCOc1ccc(NC(=O)CSc2nnc(-c3ccc(C)cc3)c(-c3ccc(C)cc3)n2)cc1 -12.4%
Cc1oc2ncn(CC(C)C)c(=O)c2c1C(=O)NCCCN(Cc1ccccc1)C(C)C 4.78%
O=C(Cn1cc(S(=O)(=O)Cc2ccc(F)cc2)c2ccccc21)NCc1ccccc1Cl 0.29%
Cc1ccccc1CSc1nnc2[nH]c(=O)cc(C)n12 -2.15%
O=C(NC1CC(=O)N(c2ccc(Cl)cc2)C1)c1ccc(S(=O)(=O)N2CCCC2)cc1 (stereo not given) -7.31%
CCc1cccc(NCc2ccccc2-c2nnc(-c3ccccc3Cl)o2)c1 5.24%
CCCC12CN3CC(C)(CN(C1)C3c1cn(C)c3ccccc13)C2=O (stereo not given) 0.159%
NCCCC(O)(P(=O)(O)O)P(=O)(O)O 12.8%
CCn1c(CN2CCOCC2)nc2cc(NC(=O)c3cc(OC)c(OC)c(OC)c3)ccc21 6.9%
CCc1ccccc1NC(=O)C1CCCN(c2nnc(-n3c(C)ccc3C)s2)C1 (stereo not given) 0.146%
CC(=O)c1ccc(NC(=O)c2cc(-c3ccc(Cl)c(Cl)c3)on2)cc1 9.86%
CCCCSCCCNC(=O)C1CCC(CNS(=O)(=O)c2ccccc2)CC1 (stereo not given) 1.62%
CC1CCN(C(=O)Cn2ncc3c4ccccc4n(Cc4ccc(Cl)cc4)c3c2=O)CC1 2.87%
COc1ccc(-c2cc(C(=O)NCc3ccccc3)c3c(-c4ccccc4)[nH]nc3n2)cc1 -3.28%
COc1ccccc1N1CCN(C(=O)Cc2c(C(=O)O)c(C)cn2C)CC1 0.0817%
O=C(Nc1ccc(F)cc1F)c1ccc2c(=O)n3c(nc2c1)CCCCC3 -2.6%
COc1ccccc1-c1cc(C(=O)Nc2cc(Cl)ccc2O)no1 1.88%
COc1cccc(-n2c(=O)c3sc4ccccc4c3n(CC(=O)Nc3cccc(Cl)c3)c2=O)c1 -3.03%
Fc1ccc(CNc2nc3ccc(Cl)cc3n3nnnc23)cc1 3.65%
O=S(=O)(Nc1cccc(-c2ccc(N3CCCCC3)nn2)c1)c1ccc(Cl)s1 -5.12%
CCOc1ccc(OCC(=O)Nc2c(C(=O)Nc3ccc(C)cc3)oc3ccccc23)cc1 -0.527%
Cc1c(C(=O)N(C)c2cccc(C(F)(F)F)c2)sc2nc3n(c(=O)c12)CCCCC3 1.75%
C=Cc1ccc(Cn2c(=O)n(-c3cccc(C)c3)c(=O)c3c2c2cc(C)ccc2n3C)cc1 -3.83%
O=c1[nH]c(=O)n([C@H]2C[C@@H](O)[C@@H](CO)O2)cc1C=CBr -8.04%
CCSc1ncc(Cl)c(C(=O)N2CCN(c3ccc(OC)cc3)CC2)n1 2.24%
COC(=O)N[C@H](C(=O)N[C@@H](Cc1ccccc1)[C@@H](O)CN(Cc1ccc(-c2ccccn2)cc1)NC(=O)[C@@H](NC(=O)OC)C(C)(C)C)C(C)(C)C 2.71%
CCN(CC)c1ccc(NC(=O)C2COc3ccc(OC)cc3C2)c(C)c1 (stereo not given) -7.53%
CCN(CC)CCCNC(=O)c1ccc2nc(CCc3ccccc3)oc2c1 -1.39%
O=S(=O)(c1cccc(Cl)c1)c1nnn2c1nc(NC1CCCCCC1)c1sccc12 5.18%
O=C(Nc1ccc2c(c1)N(C1CCCC1)C(=O)c1ccccc1S2)c1ccc(F)cc1 -1.27%
CC(C)(C)OC(=O)N1CCC(c2c(C(=O)NCc3ccco3)cnn2-c2ccc(F)cc2)CC1 -3.47%
Cc1ccc(-n2ncc(C(=O)N3CCN(Cc4ccccc4)CC3)c2C2CCN(C(=O)OC(C)(C)C)CC2)c(C)c1 2.77%
CCOC(=O)c1ccccc1NC(=O)Cn1c(=O)n(Cc2ccccc2)c(=O)c2c(C)c(C)sc21 -0.592%
CN(C)c1ccc(C(CNS(=O)(=O)c2ccc(Br)cc2)N2CCOCC2)cc1 (stereo not given) 0.645%
O=c1c2sc3ccccc3c2n(Cc2ccccc2F)c(=O)n1CCc1ccccc1 -6.46%
COc1ccc(-c2nnc(SCC(=O)Nc3ccc(F)cc3)s2)cc1 7.09%
CN(C)c1ccc(NC(=O)Cn2c(SCc3ccccc3F)nc3cccnc32)cc1 16.8%
Cc1ccc(C)c(S(=O)(=O)c2nnn3c2nc(NCc2ccc4c(c2)OCO4)c2sccc23)c1 0.468%
COC(=O)Nc1ccc(-c2nc(N3CCOCC3)c3cnn(C4CCN(C(=O)OC)CC4)c3n2)cc1 27.5%
Cc1cccc(N2C(=O)CCSC23C(=O)N(Cc2ccc(F)cc2)c2ccccc23)c1 (stereo not given) -7.42%
Cc1c(C)n(C)c2ccc(C(=O)NCCCN3CCCCC3)cc12 -3.5%
CCc1ccc(-c2ccc(C(=O)Oc3ccc(Br)cc3)cc2)nc1 13.9%
Cc1ccc(-c2nc(SCc3ccc(Br)cc3)n3[nH]c(=O)cc3n2)cc1 5.35%
Cc1c(-c2cccc(NC(=O)C(C)(C)C)c2)nc2ncccn12 11.5%
CCN(CC)S(=O)(=O)c1ccc(C(=O)N=c2sc3cccc(OC)c3n2C)cc1 -10.9%
Cc1ccc(S(=O)(=O)c2nc(-c3ccc(Cl)cc3)oc2N2CCCCCC2)cc1 -3.27%
COCCc1nn2c(=O)cc(COC(=O)c3ccc(C(C)(C)C)cc3)nc2s1 0.621%
Cc1ccc(Cn2ccc(NC(=O)c3cc(-c4ccc(Cl)c(Cl)c4)on3)n2)cc1 -14.4%
Cc1ccc2nc(N3CCN(c4cccc(C)c4C)CC3)c3nnnn3c2c1 9.66%
COc1ccccc1CNC(=O)c1cccc(Nc2nc3ccccc3n3nnnc23)c1 -12.5%
COc1ccc(NC(=O)Cc2csc(C)n2)cc1 1.26%
CC(C)(C)C(=O)Nc1c(C(=O)N2CCN(c3ccc(F)cc3)CC2)oc2ccccc12 -4.66%
Cc1ccccc1Nc1c2c(nc3nncn13)CCC2 9.63%
CCc1cccc(NC(=O)CSc2ncc3c(n2)-c2ccccc2N(Cc2ccccc2C)S3(=O)=O)c1 0.94%
O=C(CC1(O)C(=O)N(CCc2ccccc2)c2ccc(Br)cc21)c1ccccc1O (stereo not given) -8.44%
CC(=O)c1ccc(NC(=O)NCCc2c[nH]c3ccccc23)cc1 3.72%
Cc1cccc(-c2nc3scc(CCNC(=O)c4ccccc4Cl)n3n2)c1 4.91%
CCOC(=O)C1CCN(S(=O)(=O)c2cc(-c3cc(C)no3)ccc2C)CC1 -9.88%
Cc1ccc(CCNc2nc3c(S(=O)(=O)c4ccc(C)cc4)nnn3c3ccsc23)cc1 13.9%
CC(C)c1ccc(NC(=O)c2ccc(NC(=O)CCS(=O)(=O)c3cccs3)cc2)cc1 -6.5%
CCOC(=O)c1[nH]c(C)c(CCC(=O)Nc2ccc(N(CC)CC)cc2C)c1C 15.4%
Cc1ccc(-c2c3c(=O)n(C)c(=O)n(C)c3c3c(C(F)(F)F)nc4ccccc4n23)cc1 -22.6%
Cc1c(NC(=O)c2sc3c([N+](=O)[O-])cccc3c2Cl)cccc1-c1nc2ccccc2o1 -8.88%

outcome, inactive:
COc1ccc(CCNC(=O)C(=O)NCC(c2ccco2)S(=O)(=O)c2ccccc2)cc1OC (stereo not given)
O=C(NCCCc1nc2ccccc2n1Cc1ccc(Cl)cc1)c1ccco1
COc1ccc(-n2c(SCc3ccccc3F)nc3c([nH]c4ccccc43)c2=O)cc1
CSc1nn(Cc2ccc(Br)cc2)c(N(C(C)=O)C(C)=O)c1S(=O)(=O)c1ccccc1
CC(=O)c1ccc(NC(=O)C2CCC(CNS(=O)(=O)c3ccc4c(c3)CCCC(=O)N4)CC2)cc1 (stereo not given)
CCOc1ccc(CCNC(=O)c2ccc3nc(CC)c(CC)nc3c2)cc1
CCOc1ccc(CNC(=O)c2cnc3sc(N4CCC(C)CC4)nn3c2=O)cc1OC
Cc1ccc(S(=O)(=O)c2c(C)nn(-c3ccccc3)c2OC(=O)c2ccccc2F)cc1
CCC(=O)Oc1ccc(-c2nc3ccccc3c(=O)o2)cc1
CCN(c1ccc(Cl)cc1)S(=O)(=O)c1nnc(NC(=O)C(C)C)s1
Cc1ccc(-c2c(C(=O)NCCc3ccc(Cl)cc3)oc(=O)c3ccccc23)cc1
COc1ccc(NC(=O)C2=C(C)Nc3nc(SCc4ccccc4)nn3C2c2cc(OC)ccc2OC)cc1 (stereo not given)
O=C(c1ccc2c(Cl)c3c(nc2c1)CCCC3)N1CCN(c2cccc(Cl)c2)CC1
CN1CC(=O)N(CC(=O)Nc2ccc(Cl)c(C(F)(F)F)c2)c2ccccc2C1=O
COc1ccc(CNc2ncnc3c2c(-c2ccccc2)cn3-c2ccccc2)cc1
Cc1nnc(SCC(=O)NCc2ccccc2F)c2nn(-c3ccc(Cl)cc3)c(C)c12
CCC1CN(C(=O)N2CCC(C(=O)NCc3cccs3)CC2)c2cc(C)ccc2O1 (stereo not given)
CCOc1ccc(-c2cc(C(=O)NCc3ccccc3)c3c(-c4ccc(CC)cc4)[nH]nc3n2)cc1
CC1CCN(CCNC(=O)c2ccc(Cn3c(SCc4ccccc4)nc4cccnc43)cc2)CC1
Cc1cccc(NC(=O)CSc2nnc(CNC(=O)c3c(F)cccc3Cl)o2)c1C
CC(C)c1nn2c(=O)cc(COC(=O)c3ccc(NC(=O)CCc4ccccc4)cc3)nc2s1
CCCCCn1c(=O)[nH]c2cc(C(=O)Nc3ccc(F)cc3)ccc2c1=O
Cc1ccc(-n2ncc3c(NCCCc4ccccc4)ncnc32)cc1C
CCS(=O)(=O)N1CC(=O)N(c2cccc(C)c2C)C(C)(C(=O)NC2CCCCC2)C1 (stereo not given)
